# The whole screen tested about 410,000 compounds, of which about 5,000 (1.2%) were called active. The shares of active, inactive and inconclusive entries below differ from those in the screen. Calls come from the whole dose curve; as a rule, active = well fitted inhibition curve with a large enough effect; inconclusive = small, poorly fitted or top-dose-only effect; inactive = no such curve, though single readings can be large or run the other way. Potencies of inconclusive entries are doubtful fits and often do not repeat.
# Experiment: qHTS for Inhibitors of TGF-b; note: nearly all actives have a fitted effect of over 65% in size
# Conditions: HepG2 CAGA-GFP TGF-b/SMAD3 reporter, GFP fluorescence, 18 h, TGF-beta stimulated, 500 pg/mL final; series mostly up to 46.1 µM
# Method in brief: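 Inhibition was scored as loss of TGF-beta-induced (500 pg/mL final, 18 hours, 37 degrees C) GFP in HEPG2 cells carrying a CAGA-GFP reporter, in DMEM with 1% FBS. Well GFP was summed per cell; Activity was normalised to unstimulated and stimulated DMSO wells, then concentration-response fitting.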
# Potency is the fitted concentration of half-maximal effect; tags give direction and shape of the fitted curve.
row,Compound,Potency
1,COC(=O)Cc1ccc(OC2(C)CCN(Cc3ccccc3OC(F)F)C2)cc1 (centres undefined),"inconclusive: 3.98 µM [inhibitor, single point]"
2,Cc1ccc(C(=O)Nc2ccccc2-c2ccccc2)cc1S(=O)(=O)Nc1cccc(C)c1C,"inconclusive: 3.16 µM [inhibitor, single point]"
3,O=S(=O)(CCSc1nc2ccccc2s1)c1nc2ccccc2s1,"inconclusive: 31.6 µM [inhibitor, single point]"
4,COC(=O)N/N=C(\C)c1ccc(OC(F)F)cc1OC(F)F,inactive
5,COc1ccc(CCN2CC(C(=O)OCC(=O)N(C)CC(=O)Nc3ccccc3Cl)CC2=O)cc1OC (centres undefined),inactive
6,Cc1ccc(CN2CCCn3nc(C(=O)NCc4cc(C)ccc4C)cc3C2=O)cc1,"inconclusive: 35.5 µM [inhibitor, single point]"
7,CCCSc1nc2cc(OC)c(OC)cc2c(=N)n1CCCN1CCOCC1,inactive
8,O=c1[nH]c(=S)[nH]c2c1C(c1ccc(Cl)cc1)OC(CCc1ccccc1)C2 (centres undefined),"inconclusive: 8.91 µM [inhibitor, partial curve, poor fit]"
9,O=[N+]([O-])c1cc(-c2nc(-c3ccccn3)no2)ccc1NCc1ccccc1,"inconclusive: 0.282 µM [inhibitor, partial curve, poor fit]"
10,CCOC(=O)CN1C(=O)C(O)(C2CCc3ccccc3C2=O)c2ccccc21 (centres undefined),inactive
11,CO[C@H]1C=CO[C@@]2(C)Oc3c(C)c(O)c4c(O)c(c(C=NN5CCN(C)CC5)c(O)c4c3C2=O)NC(=O)C(C)=CC=C[C@H](C)[C@H](O)[C@@H](C)[C@@H](O)[C@@H](C)[C@H](OC(C)=O)[C@@H]1C,inactive
12,CC(=O)c1c(C)[nH]c(C(=O)NCCc2cccc(C)c2)c1C,"inconclusive: 5.62 µM [inhibitor, single point]"
13,CC(=O)N1C[C@H]2CON(C)[C@H]2C[C@H]1c1cccc(N2CCOCC2)c1,inactive
14,Cc1cc(C)c2nc(N3CCC(C(=O)N4CCN(c5ncccn5)CC4)CC3)sc2c1,"inconclusive: 11.2 µM [inhibitor, single point]"
15,C=CCn1c(=O)c2ccccc2n2c(Sc3nnnn3-c3ccccc3)nnc12,inactive
16,Nc1cc2c(cc1[N+](=O)[O-])-c1ccccc1C2=NO,"inconclusive: 7.94 µM [inhibitor, partial curve]"
17,Cc1nnc(SCC(=O)NC2CCS(=O)(=O)C2)n1Cc1ccccc1 (centres undefined),"inconclusive: 12.6 µM [inhibitor, single point]"
18,Clc1ccccc1NN(Cc1ccccn1)c1ccccc1Cl,"inconclusive: 35.5 µM [inhibitor, single point]"
19,COCCNCCCOc1ccc(Br)cc1Cl,inactive
20,O=C(NCCc1ccccc1)c1ccc2c(c1)S(=O)(=O)N=C1CCCCCN12,inactive
21,C=CC(=O)Nc1ccc(Nc2ccnc(Nc3ccc(N4CCN(C)CC4)cc3)n2)cc1,"inconclusive: 25.1 µM [inhibitor, single point]"
22,CCCCN(CC)Cc1ccc(CNC(=S)Nc2ccc(C)cc2Cl)o1,inactive

row,Compound,Potency
1,Cc1ccc(Cn2nnc3c(=O)n(Cc4cccc(C)c4)cnc32)cc1,inactive
2,CCc1nc2ccc(C(=O)Nc3cc(-c4ccccc4)ccc3OC)cn2c1N(CC)CCN(C)C,"inconclusive: 35.5 µM [inhibitor, single point]"
3,C[C@@H]1CN([C@H](C)CO)C(=O)CCCn2nncc2CO[C@H]1CN(C)Cc1cccc2c1OCCCO2,"inconclusive: 14.1 µM [inhibitor, partial curve, poor fit]"
4,CCc1c(C)nc2ncnn2c1N1CCCC(C(=O)Nc2ccc(NC(C)=O)cc2)C1 (centres undefined),"inconclusive: 35.5 µM [inhibitor, single point]"
5,Cc1ccccc1N(CC(=O)N/N=C/c1ccc(Cl)cc1)C(=O)c1ccccc1,"inconclusive: 22.4 µM [inhibitor, single point]"
6,Cc1nc(Sc2ccc(Br)cc2)c(C#N)c(C)c1[N+](=O)[O-],"inconclusive: 25.1 µM [inhibitor, single point]"
7,O=C(Cc1cccs1)Nc1ccc(C(=O)O)cc1,"inconclusive: 25.1 µM [inhibitor, partial curve, poor fit]"
8,Cc1ccc(-c2nc3sc(C(N)=O)c(N)c3c3c2CCCC3)cc1,"inconclusive: 11.2 µM [inhibitor, single point]"
9,O=C(Cn1c(=O)oc2cc(S(=O)(=O)NCc3ccccc3)ccc21)NCc1ccccc1Cl,"inconclusive: 0.631 µM [inhibitor, full curve, poor fit]"
10,CC(=O)Nc1ccc(NC(=O)CN(c2ccc([N+](=O)[O-])cc2)S(=O)(=O)c2ccccc2)cc1,"inconclusive: 15.8 µM [inhibitor, single point]"
11,C[C@]12c3[nH]c4cc(-c5ccco5)ccc4c3CCN1C(=O)[C@@H](CC(=O)NCc1ccco1)C[C@@H]2C(=O)N1CCCCC1,"inconclusive: 15.8 µM [inhibitor, single point]"
12,COc1ccc(SCCN2CCN(CCc3ccccc3)CCC2=O)cc1,"inconclusive: 35.5 µM [inhibitor, single point]"
13,CCCCCCNC(=O)c1cc(S(=O)(=O)N2CCc3ccccc32)ccc1F,inactive
14,CC(C(=O)Nc1ccc([N+](=O)[O-])cc1)N1CCN(C/C=C/c2ccccc2)CC1 (centres undefined),inactive
15,COc1ccc(NC(=O)CC2C(=O)N(c3ccc(F)cc3)C(=O)N2CCc2sccc2C)cc1 (centres undefined),"inconclusive: 22.4 µM [inhibitor, single point]"
16,CCOc1ccc(NC(=S)N(CCN2CCOCC2)Cc2cc3cc4c(cc3[nH]c2=O)OCCO4)cc1,inactive
17,CCCc1cc(=O)[nH]c(SCC(=O)N2CCN(S(=O)(=O)c3ccc(Cl)cc3)CC2)n1,inactive
18,CCOC(=O)c1cc(-c2ccccc2)n(CCC(=O)Nc2cc(C)cc(C)c2)c1C,"inconclusive: 6.31 µM [inhibitor, partial curve, poor fit]"
19,OC(CNCCc1ccc(Cl)cc1)COc1cc(Cl)ccc1Cl (centres undefined),active: 15.8 µM
20,COc1cccc(C(=O)N(C)CC2CCN(CCc3cccc(C(F)(F)F)c3)CC2)c1,"inconclusive: 35.5 µM [inhibitor, single point]"
21,O=C(c1cc2ccccc2oc1=O)N1CCCN(C(=O)c2cc3ccccc3oc2=O)CC1,inactive
22,CC(=O)N1CCc2cc(S(=O)(=O)N3CCc4ccccc43)ccc21,"inconclusive: 35.5 µM [inhibitor, single point]"

row,Compound,Potency
1,O=C(Oc1ccc(C(=S)N2CCCCC2)cc1)c1ccccc1F,"inconclusive: 0.112 µM [inhibitor, full curve, poor fit]"
2,CCCCCCCCn1c2c(c(=N)c3ccccc31)CCC2,"inconclusive: 7.08 µM [inhibitor, partial curve, poor fit]"
3,COc1ccc(S(=O)(=O)O/N=C2\CCSc3ccc(C)cc32)cc1,"inconclusive: 0.562 µM [inhibitor, partial curve, poor fit]"
4,O=C(O)c1ccccc1/C=N/Nc1ccc(S(=O)(=O)N2CCCC2)cc1[N+](=O)[O-],inactive
5,O=C(/C(=C/O)N=Nc1ccccc1)c1ccco1,inactive
6,Cn1cc(S(=O)(=O)N2CCCCC2)cc1C(=O)N1CCN(c2ccccc2F)CC1,inactive
7,CC(C)c1cc(C(=O)NNC(=S)NCc2ccco2)c(O)c(C(C)C)c1,"inconclusive: 35.5 µM [inhibitor, partial curve, poor fit]"
8,O=C(NC1CCCCC1)c1ccc(-c2cccc([N+](=O)[O-])c2)o1,"inconclusive: 35.5 µM [inhibitor, single point]"
9,CCN(C(=O)COc1ccc(C)cc1OC)c1cccc2ccccc12,"inconclusive: 35.5 µM [inhibitor, single point]"
10,COc1cc(C(=O)NC(=S)N(CCC#N)Cc2cccnc2)cc(OC)c1OC,"inconclusive: 35.5 µM [inhibitor, single point]"
11,CC(NNC(=S)N1CCN(c2ccccn2)CC1)c1nccc2ccccc12 (centres undefined),"inconclusive: 0.447 µM [inhibitor, full curve, poor fit]"
12,Cc1c(C(=O)OCC(=O)NCCN2C(=O)CSC2=O)oc2c1ccc1ccccc12,"inconclusive: 11.2 µM [inhibitor, partial curve, poor fit]"
13,ClCc1nc2ccccc2n1Cc1ccccc1,inactive
14,COc1ccc(NC(=O)Cn2c(=O)n(Cc3ccccc3)c(=O)c3oc4ccccc4c32)cc1Cl,"inconclusive: 0.562 µM [inhibitor, full curve, poor fit]"
15,Cc1ccc(C)c(-n2cc(-c3ccccc3)nc2SCC(=O)Nc2ccccc2)c1,"inconclusive: 35.5 µM [inhibitor, partial curve, poor fit]"
16,Cc1nc(N2CCCC2)ncc1C(=O)N1CCN(c2ccc(Cl)cc2)CC1,"inconclusive: 17.8 µM [inhibitor, single point]"
17,C[C@@H]1CN([C@@H](C)CO)C(=O)c2cc(Br)cnc2O[C@H]1CN(C)C(=O)C1CCCCC1,"inconclusive: 3.98 µM [inhibitor, single point]"
18,c1ccc2c(-c3nnc(SCc4cn5ccccc5n4)o3)c[nH]c2c1,"inconclusive: 35.5 µM [inhibitor, single point]"
19,O=c1c(-c2nn[nH]n2)coc2ccc(Cl)cc12,"inconclusive: 7.08 µM [inhibitor, partial curve, poor fit]"
20,COC(=O)C1=CN(c2cc(C)cc(C)c2)C=C(C(=O)OC)C1c1ccc(OC)c(O)c1,"inconclusive: 14.1 µM [inhibitor, single point]"

# From PubChem BioAssay AID588855 (National Center for Advancing Translational Sciences (NCATS), 2011)
